Test results: the supplement of paper PMC4967469
A lower IC50 marks a more sensitive line; a fit beyond the top or the lowest dose is shown as a bound at that dose. AUC sums up the same curve from the lowest dose to the 256-fold higher top dose; it is 1 without any effect and falls as sensitivity rises. For part of these data: A top dose marked as inferred was derived from the fitted curves, not read from the paper.

How the values were obtained:
Experiment in all cases: Viability of human cancer cell lines after 72 h of drug (GDSC screen)
XAV 939 = compound: Oc1nc(-c2ccc(C(F)(F)F)cc2)nc2c1CSCC2 [XAV 939]; details: top dose 5 µM; top dose inferred
Protocol: (§1)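 Human cancer cell lines in 384-well plates, medium with 10% serum, drug for 72 h over a 256-fold dose range (nine 2-fold or five 4-fold steps up to the top dose). Adherent lines were fixed and stained with the nucleic acid dye Syto60, suspension lines read with resazurin; signal relative to control wells, capped at 0 and 100%. One two-parameter sigmoid per drug and line, fitted in a mixed model over all curves with the slope shared within a line.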

Etoposide = compound: COc1cc([C@@H]2c3cc4c(cc3[C@@H](O[C@@H]3O[C@@H]5CO[C@@H](C)O[C@H]5[C@H](O)[C@H]3O)[C@H]3COC(=O)[C@H]23)OCO4)cc(OC)c1O [Etoposide]; details: top dose 16 µM
Protocol: as §1

GSK-650394 = compound: O=C(O)c1ccc(-c2c[nH]c3ncc(-c4ccccc4)cc23)cc1C1CCCC1 [GSK-650394]; details: top dose 16 µM; top dose inferred
Protocol: as §1

AZD7762 = compound: NC(=O)Nc1cc(-c2cccc(F)c2)sc1C(=O)N[C@H]1CCCNC1 [AZD7762]; details: top dose 2 µM
Protocol: as §1

Bexarotene = compound: C=C(c1ccc(C(=O)O)cc1)c1cc2c(cc1C)C(C)(C)CCC2(C)C [Bexarotene]; details: top dose 8 µM
Protocol: as §1

YK 4-279 = compound: COc1ccc(C(=O)CC2(O)C(=O)Nc3c(Cl)ccc(Cl)c32)cc1 [YK 4-279]; details: top dose 10 µM
Protocol: as §1

BMS-345541 = compound: Cc1ccc2nc(NCCN)c3ncc(C)n3c2c1 [BMS-345541]; details: top dose 16 µM
Protocol: as §1

NPK76-II-72-1 = compound: COc1cc(C(=O)NC2CCN(C)CC2)ccc1Nc1ncc2c(n1)N(C1CCCC1)C(C)CC(=O)N2C [NPK76-II-72-1]; details: top dose 10.24 µM; top dose inferred
Protocol: as §1

Cell Line | AUC (XAV 939) | IC50 (XAV 939) [µM] | AUC (Etoposide) | IC50 (Etoposide) [µM] | AUC (GSK-650394) | IC50 (GSK-650394) [µM] | AUC (AZD7762) | IC50 (AZD7762) [µM] | AUC (Bexarotene) | IC50 (Bexarotene) [µM] | AUC (YK 4-279) | IC50 (YK 4-279) [µM] | AUC (BMS-345541) | IC50 (BMS-345541) [µM] | AUC (NPK76-II-72-1) | IC50 (NPK76-II-72-1) [µM]
8-MG-BA (glioma, adherent) | 0.937 | > 5 | 0.152 | 0.0925 | 0.874 | 13.9 | 0.639 | 0.294 | 0.912 | > 8 | 0.522 | 0.714 | 0.882 | 15.1 | 0.904 | > 10.2
42-MG-BA (glioma, adherent) | 0.974 | > 5 | 0.835 | 11.5 | 0.802 | 8.5 | 0.626 | 0.285 | 0.961 | > 8 | 0.744 | 3.3 | 0.96 | > 16 | 0.952 | > 10.2
451Lu (melanoma, adherent) | 0.988 | > 5 | 0.863 | 12.9 | 0.885 | > 16 | 0.647 | 0.313 | 0.918 | > 8 | 0.731 | 2.75 | 0.908 | > 16 | 0.973 | > 10.2
639-V (bladder, adherent) | 0.991 | > 5 | 0.531 | 1.2 | 0.692 | 3.13 | 0.739 | 0.53 | 0.937 | > 8 | 0.727 | 2.45 | 0.989 | > 16 | 0.905 | 10.2
647-V (bladder, adherent) | 0.94 | > 5 | 0.387 | – | 0.929 | > 16 | 0.702 | 0.463 | 0.962 | > 8 | 0.871 | 9.51 | 0.923 | > 16 | 0.981 | > 10.2
697 (lymphoblastic leukaemia, suspension) | 0.982 | > 5 | 0.288 | 0.292 | 0.901 | 13.3 | 0.4 | 0.0705 | 0.977 | > 8 | 0.631 | 1.33 | 0.639 | 2.22 | 0.443 | 0.461
5637 (bladder, adherent) | 0.979 | > 5 | 0.465 | 0.811 | 0.526 | 1.17 | 0.615 | 0.251 | 0.974 | > 8 | 0.582 | 1.03 | 0.885 | 14.5 | 0.822 | 5.24
8305C (thyroid, adherent) | 0.979 | > 5 | 0.617 | – | 0.927 | > 16 | 0.73 | 0.705 | 0.976 | > 8 | 0.657 | 1.96 | 0.964 | > 16 | 0.961 | > 10.2
23132-87 (stomach, adherent) | 0.97 | > 5 | 0.423 | 0.61 | 0.788 | 7.3 | 0.631 | 0.291 | 0.97 | > 8 | 0.695 | 2.25 | 0.919 | > 16 | 0.893 | > 10.2
A3-KAW (B-cell lymphoma, suspension) | 0.989 | > 5 | 0.334 | 0.384 | 0.875 | 10.4 | 0.628 | 0.26 | 0.98 | > 8 | 0.788 | 3.45 | 0.647 | 2.33 | 0.84 | 5.08
CFPAC-1 (pancreas, adherent) | – | – | 0.562 | 1.52 | 0.742 | 5.56 | 0.773 | 0.894 | 0.93 | > 8 | 0.739 | 3.39 | 0.905 | > 16 | 0.96 | > 10.2
CHP-126 (neuroblastoma, suspension) | 0.981 | > 5 | 0.74 | 4.98 | 0.969 | > 16 | 0.472 | 0.105 | 0.961 | > 8 | 0.955 | > 10 | – | – | 0.908 | > 10.2
DAN-G (pancreas, adherent) | – | – | 0.982 | > 16 | 0.992 | > 16 | 0.796 | 0.807 | 0.992 | > 8 | 0.773 | 3.41 | 0.891 | 14.5 | 0.969 | > 10.2
EHEB (lymphoid neoplasm, suspension) | 0.947 | > 5 | 0.804 | 12.9 | 0.979 | > 16 | 0.734 | 0.807 | 0.931 | > 8 | 0.975 | > 10 | – | – | – | –
GMS-10 (glioma, adherent) | – | – | 0.941 | > 16 | 0.988 | > 16 | 0.864 | 1.73 | 0.987 | > 8 | 0.722 | 2.65 | 0.988 | > 16 | 0.986 | > 10.2
H290 (mesothelioma, adherent) | 0.94 | > 5 | 0.628 | 2.18 | 0.916 | > 16 | 0.79 | 0.81 | 0.982 | > 8 | 0.576 | 0.987 | 0.883 | 14.6 | – | –
HCC2998 (large intestine, adherent) | – | – | 0.514 | 1.09 | 0.891 | > 16 | 0.734 | 0.567 | 0.947 | > 8 | 0.477 | 0.541 | 0.882 | > 16 | 0.932 | > 10.2
HH (T-cell leukaemia, suspension) | 0.959 | > 5 | 0.644 | 2.87 | – | – | 0.669 | 0.436 | 0.703 | 2.28 | 0.727 | 3.49 | 0.642 | 2.82 | 0.613 | 1.46

Cell Line | AUC (XAV 939) | IC50 (XAV 939) [µM] | AUC (Etoposide) | IC50 (Etoposide) [µM] | AUC (GSK-650394) | IC50 (GSK-650394) [µM] | AUC (AZD7762) | IC50 (AZD7762) [µM] | AUC (Bexarotene) | IC50 (Bexarotene) [µM] | AUC (YK 4-279) | IC50 (YK 4-279) [µM] | AUC (BMS-345541) | IC50 (BMS-345541) [µM] | AUC (NPK76-II-72-1) | IC50 (NPK76-II-72-1) [µM]
IM-9 (myeloma, suspension) | 0.982 | > 5 | 0.917 | > 16 | 0.954 | > 16 | 0.884 | 1.65 | 0.99 | > 8 | 0.585 | 1.03 | – | – | – | –
IST-SL2 (small cell lung carcinoma, suspension) | 0.955 | > 5 | 0.497 | 0.981 | 0.843 | 11.2 | 0.865 | 1.74 | 0.98 | > 8 | 0.945 | > 10 | 0.845 | 11.4 | – | –
JHU-011 (head and neck, adherent) | – | – | 0.35 | 0.386 | 0.687 | 3.3 | 0.576 | 0.201 | 0.973 | > 8 | 0.637 | 1.48 | 0.712 | 3.93 | 0.767 | 3.75
JHU-029 (head and neck, adherent) | 0.943 | > 5 | 0.427 | 0.602 | 0.783 | 8.42 | 0.694 | 0.5 | 0.95 | > 8 | 0.664 | 2 | – | – | – | –
KE-37 (lymphoblastic leukaemia, suspension) | 0.989 | > 5 | 0.148 | 0.123 | – | – | 0.341 | 0.0508 | 0.957 | > 8 | 0.667 | 1.61 | 0.572 | 1.5 | 0.478 | 0.567
KMRC-1 (kidney, adherent) | – | – | 0.913 | > 16 | 0.984 | > 16 | 0.791 | 0.959 | 0.986 | > 8 | 0.83 | 6.78 | 0.98 | > 16 | 0.987 | > 10.2
LOUCY (T-cell lymphoblastic leukaemia, suspension) | 0.981 | > 5 | 0.221 | 0.188 | – | – | 0.739 | 0.513 | 0.887 | 6.11 | 0.732 | 2.46 | 0.282 | 0.278 | 0.577 | 0.996
LU-65 (large cell lung carcinoma, suspension) | – | – | 0.883 | > 16 | 0.942 | > 16 | 0.987 | > 2 | 0.978 | > 8 | 0.985 | > 10 | 0.842 | 14.3 | 0.853 | > 10.2
MKN45 (stomach, adherent) | 0.944 | > 5 | 0.588 | 1.86 | – | – | 0.634 | 0.325 | 0.983 | > 8 | 0.725 | 3.28 | 0.655 | 3.02 | 0.959 | > 10.2
NB1 (neuroblastoma, semi-adherent) | 0.982 | > 5 | 0.781 | 7.35 | 0.942 | > 16 | 0.62 | 0.277 | 0.957 | > 8 | 0.808 | 5.83 | – | – | 0.933 | > 10.2
NB-4 (acute myeloid leukaemia, suspension) | 0.991 | > 5 | 0.29 | 0.291 | – | – | 0.377 | 0.0614 | 0.965 | > 8 | 0.432 | 0.422 | 0.56 | 1.42 | 0.214 | 0.114
NEC8 (testis, adherent) | – | – | 0.413 | 0.602 | 0.933 | > 16 | 0.34 | 0.0487 | 0.99 | > 8 | 0.796 | 3.88 | 0.784 | 5.74 | 0.893 | 8.92
NH-12 (neuroblastoma, adherent) | – | – | 0.503 | 1.02 | 0.766 | 6.59 | 0.675 | 0.41 | 0.985 | > 8 | 0.477 | 0.536 | 0.869 | > 16 | 0.844 | 8.65
PANC-04-03 (pancreas, adherent) | – | – | 0.843 | > 16 | 0.809 | 15.8 | 0.814 | > 2 | 0.969 | > 8 | 0.826 | > 10 | 0.953 | > 16 | 0.971 | > 10.2
RERF-LC-Sq1 (lung squamous cell carcinoma, adherent) | 0.906 | > 5 | 0.976 | > 16 | – | – | 0.521 | 0.146 | 0.978 | > 8 | 0.814 | 9.1 | 0.809 | 13.8 | 0.946 | > 10.2
SCC90 (head and neck, adherent) | 0.975 | > 5 | 0.841 | > 16 | 0.894 | > 16 | 0.675 | 0.476 | 0.902 | > 8 | 0.711 | 3.22 | 0.853 | > 16 | – | –
SNU-182 (liver, adherent) | 0.91 | > 5 | 0.539 | 1.28 | – | – | 0.465 | 0.1 | 0.922 | > 8 | 0.819 | 6 | 0.853 | 13.4 | 0.924 | > 10.2
STS-0421 (soft tissue, adherent) | 0.836 | 4.13 | 0.635 | 2.53 | 0.9 | > 16 | 0.543 | 0.167 | 0.978 | > 8 | 0.733 | 3.28 | 0.794 | 8.82 | – | –
